According to PubChem BioAssay AID624296 (National Center for Advancing Translational Sciences (NCATS), 2012):
Screen size: about 350,000 compounds; about 9,900 (2.8%) were called active. The inconclusive results got no clear call from the source; some entries with a clear call stand among them for comparison. Calls follow the shape of the dose curve; as a rule, active = well fitted activation curve with a large enough effect; inconclusive = small, poorly fitted or top-dose-only effect; inactive = no such curve, though single readings can be large or run the other way. Potencies of inconclusive entries are left out as doubtful fits. Some structures have more than one record in an assay (separate samples or runs), and their calls can disagree.

Assay: A quantitative high throughput screen for small molecules that induce DNA re-replication in MCF 10a normal breast cells. Also: nearly all actives have a fitted effect of over 50% in size. As to activity, positive = re-replication: % of control where 0% means no effect.
Details: MCF 10A DNA re-replication, Hoechst nuclear intensity, 48 h; activity, positive = re-replication: at 46.1 µM (top of the series)
Potency is read from the fitted curve at half-maximal effect; tags tell the direction and shape of the fitted curve.

| Compound | Potency | activity, positive = re-replication |
| --- | --- | --- |
| Cc1cc(NS(=O)(=O)c2ccc(NC(=O)C(CC(C)C)N3C(=O)c4ccccc4C3=O)cc2)nc(C)n1 (stereo not drawn) | inconclusive [activator, single point] | – |
| O=C1C=C(c2ccccc2Oc2ccccc2)C[C@@H](c2ccc3c(c2)OCO3)C1 | – | inactive: 4.72% |
| C=CCn1c(CSc2nnc(-c3ccccc3)n2C)n[nH]c1=S | inconclusive [activator, single point] | – |
| CCCCOc1ccc(C(=O)Nc2ccc(N3CCN(C(C)=O)CC3)cc2)cc1 | – | inactive: 1.12% |
| Cc1c(C(=O)N2CCN(S(=O)(=O)c3ccc(F)cc3)CC2)oc2ccccc12 | inconclusive [activator, partial curve, poor fit] | – |
| COCCCn1c(=O)/c(=C\c2cccc(OC)c2OC)s/c1=C(/C#N)C(=O)Nc1ccc(C(=O)O)cc1 | inconclusive [activator, single point] | – |
| COc1ccccc1CNC(=O)[C@H](C)NC(=O)C1CCN(C(=O)[C@H](CCSC)NC(=O)OC(C)(C)C)CC1 | – | inactive: 7.45% |
| CNC(=O)c1[nH]cnc1C(=O)Nc1ccccc1C | – | inactive: -3.89% |
| CCCOc1ccc2[nH]cc(C(=O)O)c(=O)c2c1 | inconclusive [activator, partial curve, poor fit] | – |
| CC1CCN(S(=O)(=O)c2cccc(-c3csc(-c4cccnc4)n3)c2)CC1 | inconclusive [activator, full curve, poor fit] | – |
| COc1cc2c(=O)n(CCCC(=O)NCC3CCCO3)c(=O)n(CC(=O)c3ccc(F)cc3)c2cc1OC (stereo not drawn) | – | inactive: -1.88% |
| O=S(=O)(c1ccc2nc(Nc3ccccc3)ccc2c1)N1CCCCC1 | inconclusive [activator, single point] | – |
| O=C1COc2ccc(-c3csc(=Nc4ccc(OC(F)F)cc4)n3CC3CCCO3)cc2N1 (stereo not drawn) | active: 16.4 µM | – |
| COc1ccc(CCC(=O)Nc2ccc(Cn3ccnc3)cc2)cc1 | – | inactive: 7.68% |
| Cc1nn(-c2ccccc2)c(Cl)c1CN(C(=O)CCl)c1cccc2ccccc12 | inconclusive [activator, single point] | – |
| COc1ccccc1-c1nnc(SCC(=O)NCc2c(C)c(Cl)cc(C(C)C)c2O)o1 | – | inactive: -3.93% |
| COc1cc(S(=O)(=O)NCCCn2ccnc2)ccc1F | – | inactive: -0.407% |
| NS(=O)(=O)c1cccc(NC(=O)COC(=O)/C(=C/c2cccs2)c2cccs2)c1 | inconclusive [activator, partial curve, poor fit] | – |
| O=C(C(c1ccccc1)c1ccccc1)N1CCN(Cc2ccc(Br)cc2)CC1 | inconclusive [activator, single point] | – |
| COc1ccc(N2CCc3c(C)nc4c(OC)cccc4c32)cc1 | inconclusive [activator, partial curve, poor fit] | – |
| CCOc1ccc(N/N=C(/C#N)C(N)=O)cc1 | – | inactive: -6.46% |
| CSc1nc(C(=O)N2CCCC(N3CCN(c4ccccc4C)CC3)C2)cs1 (stereo not drawn) | inconclusive [activator, partial curve, poor fit] | – |
| Cc1cccc(Nc2nc(N)nc(N)c2N=O)c1 | inconclusive [activator, single point] | – |

| Compound | Potency | activity, positive = re-replication |
| --- | --- | --- |
| O=C(NNc1nc(-c2ccc(Br)cc2)cs1)c1ccco1 | active: 2.59 µM | – |
| CCN(CC)CCNC(=O)C(=O)NCC1OCCN1S(=O)(=O)c1ccc(Cl)cc1 (stereo not drawn) | inconclusive [activator, partial curve, poor fit] | – |
| CCNNC(=O)C(O)(Cc1ccccc1)Cc1ccccc1 | – | inactive: 3.33% |
| Clc1ccc(SCCCCn2ccnc2)cc1 | active: 10.3 µM | – |
| c1ccc(-c2cc(N3CCCCC3)c3ccccc3n2)cc1 | inconclusive [activator, single point] | – |
| O=C(C=C(O)c1ccc(Cl)cc1)C(=O)NNC(=O)C(O)(c1ccccc1)c1ccccc1 | inconclusive [activator, single point] | – |
| C=CCN1C(=O)/C(=C\c2ccc(Oc3nc(N4CCOCC4)nc(N4CCOCC4)n3)c(OC)c2)SC1=S | inconclusive [activator, single point] | – |
| O=C(CCNC(=O)C1CCN(S(=O)(=O)c2ccc(F)cc2)CC1)NCCc1cccc(F)c1 | inconclusive [activator, partial curve, poor fit] | – |
| COc1ccc(OCC(=O)NNC(=O)C(=O)Nc2cc(OC)ccc2OC)cc1 | – | inactive: -0.171% |
| O=C(COC(=O)C1CCN(c2ccc(C(F)(F)F)cn2)CC1)Nc1ccc(F)cc1[N+](=O)[O-] | – | inactive: -23.5% |
| COc1ccccc1CN1C[C@@H]2C[C@@H](c3ccc(C)cc3)N3CCC[C@@]23C1=O | inconclusive [activator, single point] | – |
| CC/C(C)=N/Nc1nc(-c2cc3cccc(OC)c3oc2=O)cs1 | – | inactive: -19.5% |
| COc1cc(C(=O)Nc2ccc(N3CCN(C(=O)c4ccc(C)cc4)CC3)cc2)cc(OC)c1OC | – | inactive: 10.6% |
| O=[N+]([O-])c1cc(Br)ccc1NS(=O)(=O)c1ccccc1 | inconclusive [activator, single point] | – |
| O=C(NCc1ccccc1)C(c1ccc(F)cc1)N(Cc1cccs1)C(=O)c1cnccn1 (stereo not drawn) | – | inactive: 2.84% |
| CN(/N=C/c1cccnc1)C1=NS(=O)(=O)c2ccccc21 | inconclusive [activator, single point] | – |
| Cc1cc(C(=O)NCC(=O)OCC(=O)N(C)C2CCCCC2)ccc1[N+](=O)[O-] | inconclusive [activator, partial curve] | – |
| NC(=O)c1c(NC(=O)C(=O)N2CCOCC2)sc2c1CCC2 | – | inactive: 4.86% |
| O=C(CN1CCN(Cc2ccc(Cl)cc2)CC1)N/N=C/C=C/c1ccccc1[N+](=O)[O-] | inconclusive [activator, partial curve, poor fit] | – |
| O=C(NCCc1nc2ccc(Cl)cc2[nH]1)C1CCC(=O)N(Cc2cccc(F)c2)C1 (stereo not drawn) | inconclusive [activator, single point] | – |
| O=C(Nc1ccc2nc3n(c(=O)c2c1)CCCCC3)c1cc([N+](=O)[O-])ccc1F | active: 14.6 µM | – |
| CC1CCc2[nH]c3ccc(C(=O)N(C)CC(=O)Nc4ccccc4Br)cc3c2C1 (stereo not drawn) | inconclusive [activator, partial curve, poor fit] | – |
| Cc1ccc(NC(=O)c2nc[nH]c2C(=O)NCCCCCNC(=O)OC(C)(C)C)cc1 | inconclusive [activator, single point] | – |

| Compound | Potency | activity, positive = re-replication |
| --- | --- | --- |
| Cc1sc2nnn(CC(=O)N3CCN(C(=O)c4ccco4)CC3)c(=O)c2c1C | – | inactive: -0.813% |
| CN(CCc1ccccc1)C(=O)c1ccc(NC(=O)Cc2cccc(NC(=O)C3CCN(C(=O)C4CCCC4)CC3)c2)cc1 | inconclusive [activator, partial curve, poor fit] | – |
| CCC(C)(C)C1CCc2[nH]nc(C(=O)NCc3ccccn3)c2C1 (stereo not drawn) | inconclusive [activator, single point] | – |
| Cc1cccc(OCCCOc2cccc3cccnc23)c1C | active: 23.1 µM | – |
| CCNC(=S)N/N=C(\C)c1ccco1 | inconclusive [activator, single point] | – |
| Cc1ccc(S(=O)(=O)NCC(c2cccnc2)N(C)C)cc1 (stereo not drawn) | inconclusive [activator, single point] | – |
| Cc1ccc2c(nc3s/c(=C/c4cccs4)c(=O)n32)c1C | inconclusive [activator, single point] | – |
| Cc1ccc(-n2nc(C)c3c(C(=O)OCC(=O)N(C)C4CCS(=O)(=O)C4)cc(-c4ccccc4)nc32)cc1 (stereo not drawn) | active: 20.6 µM | – |
| COc1ccc2[nH]c(C)c(CCNC(=S)Nc3cc(C)ccc3C)c2c1 | inconclusive [activator, full curve, poor fit] | – |
| CCOC(=O)C1=C(C)NC(SC)=C(C#N)C1CC(C)C (stereo not drawn) | inconclusive [activator, full curve] | – |
| Cc1c(C(=O)O)cccc1-n1c(C)cc(C=O)c1C | inconclusive [activator, single point] | – |
| CCN1CCCC1CNC(=O)c1cc2c(-c3cccc(OC)c3)nn(C)c2s1 (stereo not drawn) | – | inactive: 12.6% |
| Cc1cc(S(=O)(=O)Nc2nc(CN3CCOCC3)nc3sc4c(c23)CCC4)ccc1F | inconclusive [activator, partial curve, poor fit] | – |
| OC1(c2ccc(Cl)cc2)CCN(Cc2cn[nH]c2-c2ccccc2)CC1 | – | inactive: 2% |
| NS(=O)(=O)c1ccc(NCc2cc(Cl)ccc2OCc2ccc(F)cc2)cc1 | inconclusive [activator, single point] | – |
| O=C(CN1CCCC1)Nc1ccccc1Sc1ccc(Cl)cc1 | inconclusive [activator, partial curve, poor fit] | – |
| O=C(Nc1ccc(N2CCOCC2)cc1)c1ccc(-c2ccccc2[N+](=O)[O-])o1 | inconclusive [activator, partial curve, poor fit] | – |
| Cc1cnc(NC(=O)NCC2CCCC(CNC(=O)Nc3ncc(C)s3)C2)s1 (stereo not drawn) | inconclusive [activator, single point] | – |
| O=c1oc2ccccc2c(N2CCCCC2)c1CN1CCCC1 | – | inactive: 4.12% |
| CC(C)C[C@H](N)c1nnc(SCC(=O)Nc2ccc(Br)cc2)o1 | – | inactive: -3.62% |
| O=C(CCNc1ccc(F)c(Cl)c1)c1ccco1 | inconclusive [activator, single point] | – |
| c1ccc(-c2nc3ccccc3nc2-c2ccccn2)nc1 | inconclusive [activator, single point] | – |
